# In PubChem BioAssay (NCATS):
# The shares of active, inactive and inconclusive entries below differ from those in the screen. For some of these results: Potencies beside an inconclusive call are fits to weak or partial responses and may not hold up. The source made the active and inactive calls. Unless noted, calls follow the shape of the dose curve; as a rule, active = well fitted curve in the direction sought with a large enough effect; inconclusive = small, poorly fitted or top-dose-only effect, or another doubt; inactive = no such curve, though single readings can be large; an effect the other way counts as inactive or inconclusive.
# How the values were obtained:
# [1] = qHTS to identify inhibitors of the type 1 interferon - major histocompatibility complex class I in skeletal muscle: primary screen against the NCATS Mechanism Interrogation Plate v5.0 (MIPE) Libary (AID 1347411); settings: iHSKM cells + IFN-b, HiBiT-tagged MHC-I luminescence, 24 h; activity change, negative = inhibition: at 45.8 µM (top of the series); also: nearly all actives have a fitted effect of over 65% in size; also: potency is read from the fitted curve at half-maximal effect;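 as to activity change, negative = inhibition: plate controls were vehicle for no effect and reference inhibitor for full effect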
# How it was run: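 IFN-beta-driven (4 ng/ml) HLA-B-HiBit expression in CRISPR-tagged C25cl48 myoblasts; compounds 11-pt, 1:3, max 46 uM, 24 hr exposure; lytic NanoLuc complementation luminescence.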
# [2] = target: Cytochrome P450 3A4 (Homo sapiens) (UniProt P08684); assay: qHTS Assay for Inhibitors and Substrates of Cytochrome P450 3A4 (AID 884); settings: recombinant CYP3A4, Luciferin-PPXE luminescence; activity change, negative = inhibition: at 57.1 µM (top of the series); also: potency is read from the fitted curve at half-maximal effect; nearly all actives have a fitted effect of over 50% in size
# How it was run: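 Luminescent readout of luciferin produced by CYP3A4 (20 nM) dealkylation of Luciferin-PPXE, 25 uM (its KM). NADPH-driven reaction ran 60 min at RT after 10 min compound preincubation; data scaled to 57 uM ketoconazole as 100% inhibition.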
# [3] = qHTS Assay for Identification of Small Molecule Antagonists for NFkB Signaling Pathway (AID 895; active = well fitted inhibition curve with a large enough effect in the signal ratio, with a control signal flat, not every such curve was filed as active; inconclusive = small, poorly fitted or top-dose-only effect, or effect the other way, or a change in a side signal; the % refers to the signal ratio; also: % is scaled to controls: 0 for no effect and ±100 for the full control effect); settings: NFkB beta-lactamase reporter cells, FRET ratio 460/530, stimulated with 10 pM TNF alpha; activity change, negative = inhibition: at 38.3 µM (top of the series)
# How it was run: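 NFkB-bla ME-180 cervical carcinoma cells with beta-lactamase reporter under NFkB response element; compounds added, then TNF alpha at 10 pM final (EC50), 5 h at 37 C. LiveBLAzer substrate 2 h, room temperature; emission 460/530 nm at 405 nm excitation.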
# [4] = qHTS Assay for Identification of Small Molecule Antagonists for Thrombopoietin (TPO) Signaling Pathway (AID 918); settings: TPO-dependent cell signaling reporter, antagonist mode; activity change, negative = inhibition: at 38.5 µM (top of the series); also: nearly all actives have a fitted effect of over 60% in size
# How it was run: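 Antagonist mode at EC50 TPO (26 pM) in IL-3-free medium; murine Ba/F3 cells with human TPO receptor and GPIIb-promoter luciferase, 24 hrs at 37 C before luminescent detection.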
# [5] = qHTS for differential inhibitors of proliferation of Plasmodium falciparum line W2 (AID 1883); settings: Potency: Plasmodium falciparum W2 proliferation inhibition; series mostly up to 28.7 µM;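 also: potency is read from the fitted curve at half-maximal effect; parasites grown with compound for 72 h before lysis and staining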
# [6] = qHTS for differential inhibitors of proliferation of Plasmodium falciparum line HB3 (AID 1886); settings: Potency: Plasmodium falciparum HB3 proliferation inhibition; series mostly up to 28.7 µM;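 also: parasites grown with compound for 72 h before SYBR Green readout; plate controls were vehicle for no effect and reference inhibitor for full effect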
# [7] = target: RecQ-like DNA helicase BLM (Homo sapiens) (UniProt P54132); assay: qHTS Validation Assay for Inhibitors of Bloom's syndrome helicase (BLM) (AID 2364); settings: BLM helicase DNA unwinding, fluorescence, in vitro; series mostly up to 57.1 µM; also: potency is read from the fitted curve at half-maximal effect;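 as to activity change, negative = inhibition: plate controls were DMSO vehicle for no effect and enzyme-free control for full effect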
# How it was run: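 BLM 50 nM in 25 mM Tris-HCl pH 8.0, 5 mM NaCl, 2 mM MgCl2, 1 mM DTT, 0.01% Tween-20, 2.5 ug/ml poly(dI-dC); 15 min cpd preinc, RT. Start: 200 nM forked DNA + 2 mM ATP (final). TAMRA read, 2 reads 2 h apart.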
# [8] = target: Beta-2 adrenergic receptor (Homo sapiens) (UniProt P07550); assay: qHTS validation assay of beta-arrestin-biased ligands of beta2-adrenergic receptor (AID 485366); settings: cell-based beta-arrestin recruitment to ADRB2, qHTS; at 46.1 µM (top of the series); also: 0% is about no effect
# How it was run: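 Agonism was measured as beta-arrestin recruitment to recombinant beta2-AR, releasing tTA to drive luciferase. Cells were exposed for 18 hr at 37 degrees C to a series up to 46 microM. %Activity from corrected luminescence gave concentration-response curves.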
# [9] = Nrf2 qHTS screen for inhibitors: Validation (AID 493153; active = well fitted inhibition curve with a large enough effect in the main read-out, with a control signal flat, not every such curve was filed as active; inconclusive = small, poorly fitted or top-dose-only effect, or effect the other way, or a change in a side signal; inactive = no such curve, though single readings can be large or run the other way;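 also: A549 cells with ARE-driven firefly luciferase reporter reporting Nrf2 activity; % of control where 0% means no effect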); settings: A549 ARE-Fluc reporter, luciferase luminescence, 18-24 h; series mostly up to 46.1 µM
# How it was run: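 In this counterscreened reporter format, each well gives two signals: CellTiter-Fluor fluorescence for cytotoxicity and ARE-luciferase luminescence for Nrf2 function. A549 ARE_Fluc cells in 5% FBS OPTI-MEM were exposed to compound titrations for 18-24 h.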
# [10] = target: Voltage-gated inwardly rectifying potassium channel KCNH2 (Homo sapiens) (UniProt Q12809); assay: qHTS Assay for Small Molecule Inhibitors of the Human hERG Channel Activity (AID 588834); settings: U2OS BacMam hERG, FluxOR thallium flux fluorescence; series mostly up to 46.1 µM;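 also: top concentration of the series differs between compounds; % is scaled to controls: 0 for no effect and ±100 for the full control effect; lower thallium flux fluorescence means stronger hERG block; nearly all actives have a fitted effect of over 50% in size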
# How it was run: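 hERG block measured as reduced thallium-dye (FluxOR) fluorescence after stimulation buffer addition, read over 2 min. Cells were hERG-BacMam-transduced U2OS exposed to compound ~10 min […]; concentration-response fitted with Hill equation for AC50.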
# [11] = qHTS to identify inhibitors of the type 1 interferon - major histocompatibility complex class I in skeletal muscle: primary screen against the NCATS LOPAC collection (AID 1347405); settings: iHSKM muscle cells, IFN-b-induced MHC-I HiBiT luminescence, 24 h; series mostly up to 45.9 µM;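 also: human myoblasts with HiBiT tag on endogenous HLA-B stimulated by IFN-beta; lytic HiBiT luminescence reporting HLA-B protein level; % is scaled to controls: 0 for no effect and ±100 for the full control effect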
# How it was run: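 IFN-beta-stimulated (4 ng/ml) HLA-B HiBiT knock-in myoblasts, compound-treated 24 hrs up to 46 uM final; signal via LgBiT complementation and furimazine luminescence.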
# [12] = Primary qHTS for small molecule stabilizers of the endoplasmic reticulum resident proteome: Secreted ER Calcium Modulated Protein (SERCaMP) assay (AID 1508630); settings: SH-SY5Y GLuc-SERCaMP (Gaussia luciferase released on ER calcium loss) secretion, thapsigargin, luminescence; activity change, negative = inhibition: at 38.4 µM (top of the series) unless noted; also: potency is read from the fitted curve at half-maximal effect
# How it was run: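 The SH-SY5Y reporter protocol was run at 3 concentrations up to 38.3 uM (primary) or 11 concentrations (follow-up): 16 h compound, 100 nM thapsigargin for 4 h, then extracellular luciferase luminescence.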
# [13] = target: Glucocorticoid receptor (Homo sapiens) (UniProt P04150); assay: GR-EFC Redistribution (AID 451; calls by dose curve; also: potency is read from the fitted curve at half-maximal effect); settings: CHO-K1 GR-EFC translocation, beta-gal luminescence, 2 h
# How it was run: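 CHO-K1 cells stably expressing nuclear-localized β-gal enzyme acceptor and GR fused C-terminally to the enzyme donor fragment; ligand-driven nuclear translocation restores β-gal by complementation. Compounds titrated up to 46 uM final, 2 h at 37 °C; luminescence read.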
# [14] = target: 3',5'-cyclic-AMP phosphodiesterase 4B (Homo sapiens) (UniProt Q07343); assay: qHTS Assay for Inhibitors of PDE-IV (AID 607; active = well fitted activation curve with a large enough effect in the main read-out, with a control signal flat, not every such curve was filed as active; inconclusive = small, poorly fitted or top-dose-only effect, or effect the other way, or a change in a side signal; also: potency is read from the fitted curve at half-maximal effect); settings: HEK293 ACTOne CNG channel cells, membrane potential fluorescence; activation (PDE inhibition): at 22.9 µM (top of the series)
# How it was run: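 Cell-based read-out of cAMP via a modified cyclic nucleotide-gated channel and membrane potential dye (535/590 nm) in HEK293 cells expressing PDE4 endogenously. Compounds tested up to 22.9 uM final; 100 uM RO 20-1724 reference.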
# [15] = target: Muscarinic acetylcholine receptor M1 (Rattus norvegicus) (UniProt P08482); assay: qHTS Assay for Antagonists of Acetylcholine Muscarinic M1 Receptor: Kinetic Measurement of Intracellular Calcium Response (AID 943); settings: M1-expressing cells, kinetic intracellular calcium fluorescence; series mostly up to 35.3 µM;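 also: Fluo-4 calcium signal as peak divided by basal fluorescence over 4 min; nearly all actives have a fitted effect of over 75% in size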
# How it was run: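 Quantitative HTS in CHO-M1 (rat receptor) cells: 10 min compound exposure ahead of 100 nM carbachol, Fluo-4 fluorescence followed 4 min, value expressed as peak-to-basal ratio.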
# [16] = target: Muscarinic acetylcholine receptor M1 (Rattus norvegicus) (UniProt P08482); assay: qHTS Assay for Antagonists of Acetylcholine Muscarinic M1 Receptor: Measurement of IP-One Response (AID 944); settings: CHO-M1 cells, IP-One HTRF, antagonist mode; series mostly up to 46.1 µM; also: nearly all actives have a fitted effect of over 75% in size
# [17] = qHTS Assay for Lipid Storage Modulators (AID 1519; calls by dose curve; also: % is scaled to controls: 0 for no effect and ±100 for the full control effect); settings: Drosophila S3 cells, BODIPY lipid droplet/cell ratio, laser cytometry, cells loaded with oleic acid; activity change, negative = inhibition: at 57.5 µM (top of the series) unless noted
# How it was run: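 Cells seeded at 5,000 per well were treated with compounds over a concentration series and loaded with oleic acid (400 uM, as added). Lipid droplet fluorescence (488 nm excitation, 500-530 nm channel) was read by laser-scanning cytometry and normalized to 20 uM Triacsin C.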
# [18] = qHTS for differential inhibitors of proliferation of Plasmodium falciparum line 7G8 (AID 1815); settings: Plasmodium falciparum 7G8 proliferation inhibition; series mostly up to 28.7 µM;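 also: parasite growth measured after three days of incubation; plate controls were vehicle wells for no effect and reference inhibitor wells for full effect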
# [19] = target: ATP-dependent 6-phosphofructokinase (Trypanosoma brucei brucei) (UniProt O15648); assay: qHTS Validation Assay to Find Inhibitors of T. brucei phosphofructokinase (AID 485368);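 also: 0% = full PFK enzyme control and -100% = wells without enzyme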; settings: T. brucei PFK enzyme assay, qHTS 7-point titration; series mostly up to 57.5 µM
# How it was run: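 ADP-Glo luminescence, two-step: residual ATP depleted, then ADP converted to ATP for luciferase. Enzyme 1.25 nM, F6P 0.5 mM, ATP 0.1 mM, pH 8.0 TEA buffer, 45 min RT. Curves fitted and classed by quality and efficacy.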
# Tags tell the direction and shape of the fitted curve.
# Chain of UniProt P54132 (P54132 whole entry, looked up): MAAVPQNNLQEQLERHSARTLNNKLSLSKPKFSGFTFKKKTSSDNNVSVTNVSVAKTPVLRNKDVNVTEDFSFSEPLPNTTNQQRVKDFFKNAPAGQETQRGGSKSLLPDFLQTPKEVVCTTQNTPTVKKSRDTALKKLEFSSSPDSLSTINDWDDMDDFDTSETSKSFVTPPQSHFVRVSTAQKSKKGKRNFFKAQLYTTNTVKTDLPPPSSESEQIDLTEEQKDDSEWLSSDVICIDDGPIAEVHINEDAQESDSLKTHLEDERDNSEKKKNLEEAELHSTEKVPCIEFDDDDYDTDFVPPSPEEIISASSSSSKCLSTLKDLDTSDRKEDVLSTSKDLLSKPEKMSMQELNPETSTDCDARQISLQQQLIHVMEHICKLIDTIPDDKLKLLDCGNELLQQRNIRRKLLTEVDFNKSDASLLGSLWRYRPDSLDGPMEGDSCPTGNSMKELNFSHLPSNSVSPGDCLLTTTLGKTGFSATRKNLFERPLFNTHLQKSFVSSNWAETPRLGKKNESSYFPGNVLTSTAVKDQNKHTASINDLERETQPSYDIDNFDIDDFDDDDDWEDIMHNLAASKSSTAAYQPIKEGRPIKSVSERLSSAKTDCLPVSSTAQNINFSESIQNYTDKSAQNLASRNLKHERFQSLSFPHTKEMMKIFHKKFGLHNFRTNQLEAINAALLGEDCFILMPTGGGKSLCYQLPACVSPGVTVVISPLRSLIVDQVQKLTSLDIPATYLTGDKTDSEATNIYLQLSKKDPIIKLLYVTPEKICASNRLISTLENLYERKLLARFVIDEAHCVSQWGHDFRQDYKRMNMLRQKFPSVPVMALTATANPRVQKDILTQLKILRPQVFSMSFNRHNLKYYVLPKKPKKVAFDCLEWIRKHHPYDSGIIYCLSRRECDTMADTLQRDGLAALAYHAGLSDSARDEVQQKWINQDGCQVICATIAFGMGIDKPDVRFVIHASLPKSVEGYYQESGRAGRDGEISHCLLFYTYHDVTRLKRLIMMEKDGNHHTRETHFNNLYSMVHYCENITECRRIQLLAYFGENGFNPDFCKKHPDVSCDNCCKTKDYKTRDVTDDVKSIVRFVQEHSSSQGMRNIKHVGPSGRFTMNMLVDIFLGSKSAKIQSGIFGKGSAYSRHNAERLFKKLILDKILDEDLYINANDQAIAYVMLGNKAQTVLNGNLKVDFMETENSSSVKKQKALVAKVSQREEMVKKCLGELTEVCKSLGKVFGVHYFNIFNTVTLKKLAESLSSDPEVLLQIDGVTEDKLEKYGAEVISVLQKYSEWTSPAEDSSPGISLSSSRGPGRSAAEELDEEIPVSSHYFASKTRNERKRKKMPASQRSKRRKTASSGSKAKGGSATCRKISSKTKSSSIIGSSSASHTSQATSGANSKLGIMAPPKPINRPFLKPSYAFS
# Chain of UniProt P08482 (P08482 whole entry, looked up): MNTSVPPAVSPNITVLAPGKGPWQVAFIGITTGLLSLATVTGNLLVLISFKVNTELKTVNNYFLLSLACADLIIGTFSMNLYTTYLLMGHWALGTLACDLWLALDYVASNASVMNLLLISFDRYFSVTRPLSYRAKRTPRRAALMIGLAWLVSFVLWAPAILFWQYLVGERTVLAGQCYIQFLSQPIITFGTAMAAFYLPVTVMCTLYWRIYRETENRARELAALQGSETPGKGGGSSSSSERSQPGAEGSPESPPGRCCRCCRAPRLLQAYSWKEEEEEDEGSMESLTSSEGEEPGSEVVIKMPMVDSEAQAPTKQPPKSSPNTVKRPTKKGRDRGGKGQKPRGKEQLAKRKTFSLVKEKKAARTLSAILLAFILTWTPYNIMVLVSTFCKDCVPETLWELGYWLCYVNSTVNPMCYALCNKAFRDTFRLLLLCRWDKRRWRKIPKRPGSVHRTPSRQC
# Chain of UniProt O15648 (O15648 whole entry, looked up): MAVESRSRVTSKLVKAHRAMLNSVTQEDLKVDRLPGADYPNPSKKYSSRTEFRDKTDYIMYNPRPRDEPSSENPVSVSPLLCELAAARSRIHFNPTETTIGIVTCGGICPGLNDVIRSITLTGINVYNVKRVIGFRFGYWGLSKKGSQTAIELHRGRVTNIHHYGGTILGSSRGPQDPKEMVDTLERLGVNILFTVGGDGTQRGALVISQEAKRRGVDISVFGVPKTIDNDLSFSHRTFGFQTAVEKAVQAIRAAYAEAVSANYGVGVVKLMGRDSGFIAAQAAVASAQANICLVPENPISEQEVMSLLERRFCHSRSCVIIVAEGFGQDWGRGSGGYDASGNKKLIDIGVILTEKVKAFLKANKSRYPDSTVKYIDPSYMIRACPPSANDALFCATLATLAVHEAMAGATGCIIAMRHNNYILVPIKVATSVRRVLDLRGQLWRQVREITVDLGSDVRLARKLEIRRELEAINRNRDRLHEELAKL
# Chain of UniProt P08684 (P08684 whole entry, looked up): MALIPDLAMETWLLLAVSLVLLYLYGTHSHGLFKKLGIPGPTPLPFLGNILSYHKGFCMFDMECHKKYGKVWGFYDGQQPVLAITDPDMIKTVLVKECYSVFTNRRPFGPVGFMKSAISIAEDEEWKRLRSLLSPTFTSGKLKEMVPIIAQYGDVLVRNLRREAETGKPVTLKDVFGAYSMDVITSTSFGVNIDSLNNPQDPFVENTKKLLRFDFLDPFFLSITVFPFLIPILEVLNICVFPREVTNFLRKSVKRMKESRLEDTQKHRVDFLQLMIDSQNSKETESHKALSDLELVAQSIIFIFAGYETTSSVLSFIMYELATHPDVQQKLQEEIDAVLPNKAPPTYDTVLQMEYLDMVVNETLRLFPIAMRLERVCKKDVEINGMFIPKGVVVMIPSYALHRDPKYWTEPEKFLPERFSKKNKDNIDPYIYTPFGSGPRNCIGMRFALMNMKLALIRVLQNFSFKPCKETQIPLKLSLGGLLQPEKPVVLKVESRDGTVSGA
# Chain of UniProt Q12809 (Q12809 whole entry, looked up): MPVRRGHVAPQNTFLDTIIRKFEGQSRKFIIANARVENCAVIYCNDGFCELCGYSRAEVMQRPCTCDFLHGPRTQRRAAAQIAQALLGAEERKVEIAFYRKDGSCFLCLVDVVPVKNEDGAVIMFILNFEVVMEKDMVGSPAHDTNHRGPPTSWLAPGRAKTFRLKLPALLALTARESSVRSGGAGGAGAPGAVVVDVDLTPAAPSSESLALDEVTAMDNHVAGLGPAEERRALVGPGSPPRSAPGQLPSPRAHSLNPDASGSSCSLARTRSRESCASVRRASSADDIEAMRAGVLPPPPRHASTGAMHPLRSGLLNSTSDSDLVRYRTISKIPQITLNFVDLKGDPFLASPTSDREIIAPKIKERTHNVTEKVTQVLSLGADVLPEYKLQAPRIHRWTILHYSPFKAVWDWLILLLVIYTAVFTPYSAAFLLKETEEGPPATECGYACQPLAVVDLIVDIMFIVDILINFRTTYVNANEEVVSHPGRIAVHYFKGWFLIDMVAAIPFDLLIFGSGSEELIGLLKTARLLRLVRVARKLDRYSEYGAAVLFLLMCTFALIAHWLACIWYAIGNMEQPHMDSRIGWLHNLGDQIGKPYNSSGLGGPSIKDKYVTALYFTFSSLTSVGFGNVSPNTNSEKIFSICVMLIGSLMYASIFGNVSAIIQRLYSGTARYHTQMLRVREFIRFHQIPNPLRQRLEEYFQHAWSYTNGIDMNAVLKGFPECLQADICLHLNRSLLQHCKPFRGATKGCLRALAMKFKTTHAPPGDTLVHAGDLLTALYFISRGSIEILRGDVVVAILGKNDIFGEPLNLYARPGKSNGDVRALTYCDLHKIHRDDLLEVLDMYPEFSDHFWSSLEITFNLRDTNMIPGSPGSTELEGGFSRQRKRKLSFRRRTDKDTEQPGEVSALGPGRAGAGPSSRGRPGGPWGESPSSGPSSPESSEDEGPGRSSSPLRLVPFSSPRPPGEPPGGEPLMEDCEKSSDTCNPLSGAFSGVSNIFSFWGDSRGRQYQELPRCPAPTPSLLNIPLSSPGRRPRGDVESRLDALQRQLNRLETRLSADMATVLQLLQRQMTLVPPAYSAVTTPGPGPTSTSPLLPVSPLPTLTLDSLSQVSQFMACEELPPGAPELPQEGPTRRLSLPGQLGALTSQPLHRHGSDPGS
# Chain of UniProt Q07343 (Q07343 whole entry, looked up): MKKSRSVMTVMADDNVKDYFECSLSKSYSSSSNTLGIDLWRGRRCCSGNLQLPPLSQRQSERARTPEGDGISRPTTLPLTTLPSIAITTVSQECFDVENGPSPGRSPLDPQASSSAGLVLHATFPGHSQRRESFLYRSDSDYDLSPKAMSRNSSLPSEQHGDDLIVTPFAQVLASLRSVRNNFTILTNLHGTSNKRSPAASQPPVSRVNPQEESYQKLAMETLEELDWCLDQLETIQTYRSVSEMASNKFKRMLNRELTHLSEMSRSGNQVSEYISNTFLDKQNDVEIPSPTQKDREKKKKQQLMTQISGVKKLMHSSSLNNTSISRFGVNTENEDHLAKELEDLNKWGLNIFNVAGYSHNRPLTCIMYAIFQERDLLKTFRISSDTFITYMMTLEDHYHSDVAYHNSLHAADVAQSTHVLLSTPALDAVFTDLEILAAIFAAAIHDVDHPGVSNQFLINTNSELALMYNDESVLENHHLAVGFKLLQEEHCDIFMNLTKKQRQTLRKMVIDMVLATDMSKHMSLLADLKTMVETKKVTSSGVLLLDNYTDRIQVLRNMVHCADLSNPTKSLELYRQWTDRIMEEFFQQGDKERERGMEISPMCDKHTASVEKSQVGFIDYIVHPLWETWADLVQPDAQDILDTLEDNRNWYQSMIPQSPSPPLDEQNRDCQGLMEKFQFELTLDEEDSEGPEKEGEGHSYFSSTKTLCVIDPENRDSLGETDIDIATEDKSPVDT
compound,measurement,setting,value
O=C(Nc1nccs1)C(c1cc(F)ccc1O)N1Cc2ccccc2C1=O (stereo not given),Potency,[1],inactive
OC1CCC(Oc2cccc3cnc(Nc4ccc5nc[nH]c5c4)nc23)CC1 (stereo not given),Potency,[1],active: 0.523 µM
C/C=C/C/C=C/CCC(=O)[C@H]1O[C@H]1C(N)=O,Potency,[1],"inconclusive: 18.6 µM [inhibitor, partial curve]"
COCc1nc2c([nH]1)c(=O)n(C)c(=O)n2CC(C)C,Potency,[2],"inconclusive: 1.26 µM [inhibitor, full curve, poor fit]"
same,"activity change, negative = inhibition",[3],inconclusive: 30%
same,"activity change, negative = inhibition",[4],inconclusive: 2.77% [phenotype inactive]
same,Potency,[5],"inconclusive: 7.08 µM [inhibitor, single point]"
same,Potency,[6],inactive
same,Potency,[7],"inconclusive: 3.55 µM [inhibitor, partial curve]"
same,activation,[8],inactive: 0.0133%
same,Potency,[9],inactive
same,Potency,[10],inactive
same,Potency,[11],inactive
same,Potency,[12],"inconclusive: 31.6 µM [inhibitor, single point]"
CC(C)Cn1c(=O)n(C)c(=O)c2[nH]cnc21,Potency,[13],inactive: > 46 µM
same,Potency,[14],"inconclusive: 12.6 µM [activator, partial curve]"
same,"activity change, negative = inhibition",[3],inconclusive: -34.1%
same,"activity change, negative = inhibition",[4],inconclusive: -1.24% [phenotype inactive]
same,Potency,[15],inactive
same,Potency,[16],inactive
same,"activity change, negative = inhibition",[17],inconclusive: 12.1%
same,Potency,[18],inactive
same,Potency,[7],inactive
same,Potency,[19],inactive
same,Potency,[11],inactive
